± gives the standard deviation. Whole data set: some 5,500 sequences, median “pre-steady-state target cleavage rate” near 0.1, cut for the highest 2% near 0.64. Only a part is listed here, and it is no random draw.
tested on: MIWI (PIWIL1) piRISC loaded with piRNA #2 (30 nt); assay: pre-steady-state target cleavage rate (min^-1); MIWI and MILI are mouse PIWI proteins and EfPiwi is from a freshwater sponge; tags in brackets are library labels; higher = faster piRNA-guided slicing of the target; details: guide: piRNA #2 5'p-UUAGGUAACCCAGUAGAUCCAGAGGAAUUC; auxiliary factor: 500 nM mouse GTSF1
Description: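 Cleave-'n-Seq: a library of target RNAs (target site embedded in constant flanks, ACAGCATTCCGCGTTAGTGATATCCG... 5' flank; DNA-blocked outside the site) at 0.1 nM was incubated with 1 nM active mouse MILI or MIWI piRISC (synthetic 5'-monophosphorylated piRNA guide) with or without 500 nM mouse GTSF1 at 33 °C for 1 min to 16 h. Uncleaved targets were sequenced and normalised to non-target controls, and the pooled three trials were fitted to a burst-and-steady-state model to give the pre-steady-state cleavage rate (min^-1; k3 is constrained to at most 1e-4). Sequence is the target site only; target names encode pairing extent (gX:gY) and contiguous / 1-mismatch / 2-mismatch / bulge geometry. Fits with R² ≤ 0 are excluded.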

Sequence	pre-steady-state target cleavage rate
CUAUUCCUCUGGAUCUACUGGGUUACCGAA	0.295 ± 0.066
CUUAACCUCUGGAUCUAUUGGGUUACCUAA	0.0875 ± 0.015
CUUUUGCUCUGGAUCUACUCGGUUACCUAA	0.0506 ± 0.0086
GAAUUCCUGUCGAUCUACUGGGUUACCUAA	0.504 ± 0.055
CUAUUCCUCUGGAUCUACUGCGAUACCUAA	0.171 ± 0.033
CAAUUCCUCAGGAUCUACUCGGUUACCUAA	0.106 ± 0.019
CUUAAGGUGUGGAUCUACUGCGUUACCUAA	0.0822 ± 0.015
CAAUUCCUCUGGAUCUACAGCGUUACCUAA	0.187 ± 0.027
GAAUUCCUCUGGAUCUACUGGGUAUCCUAA	0.234 ± 0.078
CAAUUCGUCUGGAUCUACUGGGUUUCCUAA	0.469 ± 0.067
CUUAAGGUCUGGAACUACUCGGUUACCUAA	0.0293 ± 0.025
CUUAACCUCUGGUUCUACAGGGUUACCUAA	0.225 ± 0.03
CAAUUCCUCUGGAUCUACUGGGUAUGCUAA	0.0159 ± 0.006
CUAUUCCUCUGGAUCUGCUGGGUUACCUAA	0.509 ± 0.067
CUUAAGCUCUGGAACUACAGGGUUACCUAA	0.145 ± 0.013
CUAUUGCUCUGGAUCUAGUGGGUUACCUAA	0.0449 ± 0.0082
CAAUUCCUCUGGUUCUACUGGCUUACCUAA	0.181 ± 0.018
CUUAUCCUCUGGAUGUACUGGGAUACCUAA	0.146 ± 0.025
CUUAAGGAGACCUAGAAGUGCGUUACCUAA	0.00455 ± 0.0012
CUAUUCCUCUGGAUCUACUGGGGUUACCUAA	0.0442 ± 0.011
GAAUUCCUCUGCAUCAACUGGGUUACCUAA	0.425 ± 0.046
CUUUUCCUCUGGAUCUACUGGGUUUCCUUA	0.253 ± 0.056
CUUAAGCUGUGGAUCUACUGGGUUAGCUAA	0.0688 ± 0.021
CUUAAGGAGUGGAACUACUGGGUUACCUAA	0.0357 ± 0.024

Sequence	pre-steady-state target cleavage rate
CUUAAGGUCUGGAUGUAGUGGGUUACCUAA	0.00804 ± 0.0064
CUUAAGGAGACCAUCUAGUGCGUUACCUAA	0.00477 ± 0.0027
CAUUUCCUCAGGAUCUACUGGGUUACCUAA	0.701 ± 0.054
GUAUUCCUCUGGAUCUACUGGGUUACCUAA	0.0746 ± 0.032
CUAUUCCUCUGGAUCUACUGGCUUACGUAA	0.0802 ± 0.022
CUUUUCCUCAGGAUCUACUGGGUUUCCUAA	0.371 ± 0.056
CUAUUCCUCUCGAUCUACUGGGUAACCUAA	0.398 ± 0.041
CUAUUCCUCUGGAUCUUCUGGGUUAGCUAA	0.148 ± 0.049
CAAUUCCUCUCGAUCUACUGGGUAACCUAA	0.476 ± 0.058
CAAUUCGUCUGGAUCUAGUGGGUUACCUAA	0.0607 ± 0.015
CUAUUCCUCUGGAUCUACAGGGUUACGUAA	0.3 ± 0.03
CUUAUCCUCUGGAUCUAGUGGGAUACCUAA	0.0912 ± 0.02
CUAUUCCUCUGGAUCUAAUGGGUUACCUAA	0.17 ± 0.026
CUUUUCCUCUCGAUCUACUGGGUUACCUUA	0.539 ± 0.05
CUAUACCUCUGGAUCAACUGGGUUACCUAA	0.372 ± 0.043
GAAUUCCUCUGGAUCUACUGGGUUACGAUA	0.296 ± 0.045
CUUUUCCUCUGGAUCAACUCGGUUACCUAA	0.0775 ± 0.014
CUUAAGCUCUGAAUCUACUGGGUUACCUAA	0.0585 ± 0.014
CUUAAGGAGAGGAUCUACUGGGUUACGUUA	0.00644 ± 0.0042
CUUAUCCUCUGGAACUACUGGGUUACGUAA	0.48 ± 0.03
GAAUUCCUCUGGAACUACAGGGUUACCUAA	0.281 ± 0.034
CUAUACCUCUGGAUCUACUGGGUUAGCUAA	0.388 ± 0.044
CUUAAGGAGGGGAUCUACUGGGUUACCUAA	0.045 ± 0.016
CUAAUCCUCUGGAUCAACUGGGUUACCUAA	0.381 ± 0.043

Sequence	pre-steady-state target cleavage rate
GAAUUCCUCUGGAUCUACUGGGUAUGCUAA	0.124 ± 0.031
CUUAAGGACUGGAUCUACAGGGUUACGUAA	0.23 ± 0.047
GAAUUGCCUCUGGAUCUACUGGGUUACCUAA	0.0426 ± 0.02
CUUUCCCUCUGGAUCUACUGGGUUACCUAA	0.305 ± 0.036
CUUAACCUCAGGAUCUACUGGCUUACCUAA	0.06 ± 0.014
CUUAACGUCUGGAUCUACUGGGUUACCAAA	0.238 ± 0.024
CAAUUGCUCUGGAUCUUCUGGGUUACCUAA	0.207 ± 0.036
GAAUUGCUCUGGAUCUACUGGGUUACCUAA	0.0741 ± 0.026
CUAUUGCUCAGGAUCUACUGGGUUACCUAA	0.437 ± 0.042
CUUUUCCUCUGAGAUCUACUGGGUUACCUAA	0.384 ± 0.031
CAAUUCCUCUGGAUCUACUGGGUUAGCCUAA	0.651 ± 0.079
CUUAAGCUCUGGAUCUACUGGGUUAUCUAA	0.187 ± 0.028
CUUUUGCUCUGGAUGUACUGGGUUACCUAA	0.282 ± 0.023
CUUUUCCUCUGGAUCUACACCGUUACCUAA	0.0786 ± 0.0085
CUAUUCCUCUGCAUCUACUGGGUAACCUAA	0.242 ± 0.029
CUUAAGCUCUGGAUGUACUCGGUUACCUAA	0.0534 ± 0.016
CUUAAGCUCUGGAUCUACUGGUUACCUAA	0.014 ± 0.0048
CUUAAGGACUGGAUCUACUGGGUUACCAAA	0.0324 ± 0.026
CUUAAGGUCUGGAUAUACUGGGUUACCUAA	0.242 ± 0.033
CUAUUCCUCUGGAUGUACAGGGUUACCUAA	0.468 ± 0.03
CUUUUCCUCUGGAUCUACUGGGAAUCCUAA	0.168 ± 0.053
GAAUUCCUCUGGAUCUACUGGGUUUACCUAA	0.322 ± 0.047
CUUAAGGUCUCGAUCUACUGGGUUAGCUAA	0.0797 ± 0.015
CUUUUCCUUUGGAUCUACUGGGUUACCUAA	0.469 ± 0.038

Source: the supplement of paper PMC10338343
